Data: the supplement of paper PMC3334620
In all, about 33,000 sequences were measured (“E-score (-0.5 to 0.5)”: median about -0.053, highest 2% from about 0.37 on). This is one part of the list.

The sequences below were run against Hap1 (UniProt P0CE41) (assay: PBM E-score (8-mer binding enrichment) (E-score (-0.5 to 0.5)); higher = stronger / more preferred TF binding; most listed sequences are background and not binding sites). Details: protein concentration: 200 nM; construct: GST-DNA-binding domain.
Sequence of UniProt P0CE41 (P0CE41 whole entry, the tested form may be a part): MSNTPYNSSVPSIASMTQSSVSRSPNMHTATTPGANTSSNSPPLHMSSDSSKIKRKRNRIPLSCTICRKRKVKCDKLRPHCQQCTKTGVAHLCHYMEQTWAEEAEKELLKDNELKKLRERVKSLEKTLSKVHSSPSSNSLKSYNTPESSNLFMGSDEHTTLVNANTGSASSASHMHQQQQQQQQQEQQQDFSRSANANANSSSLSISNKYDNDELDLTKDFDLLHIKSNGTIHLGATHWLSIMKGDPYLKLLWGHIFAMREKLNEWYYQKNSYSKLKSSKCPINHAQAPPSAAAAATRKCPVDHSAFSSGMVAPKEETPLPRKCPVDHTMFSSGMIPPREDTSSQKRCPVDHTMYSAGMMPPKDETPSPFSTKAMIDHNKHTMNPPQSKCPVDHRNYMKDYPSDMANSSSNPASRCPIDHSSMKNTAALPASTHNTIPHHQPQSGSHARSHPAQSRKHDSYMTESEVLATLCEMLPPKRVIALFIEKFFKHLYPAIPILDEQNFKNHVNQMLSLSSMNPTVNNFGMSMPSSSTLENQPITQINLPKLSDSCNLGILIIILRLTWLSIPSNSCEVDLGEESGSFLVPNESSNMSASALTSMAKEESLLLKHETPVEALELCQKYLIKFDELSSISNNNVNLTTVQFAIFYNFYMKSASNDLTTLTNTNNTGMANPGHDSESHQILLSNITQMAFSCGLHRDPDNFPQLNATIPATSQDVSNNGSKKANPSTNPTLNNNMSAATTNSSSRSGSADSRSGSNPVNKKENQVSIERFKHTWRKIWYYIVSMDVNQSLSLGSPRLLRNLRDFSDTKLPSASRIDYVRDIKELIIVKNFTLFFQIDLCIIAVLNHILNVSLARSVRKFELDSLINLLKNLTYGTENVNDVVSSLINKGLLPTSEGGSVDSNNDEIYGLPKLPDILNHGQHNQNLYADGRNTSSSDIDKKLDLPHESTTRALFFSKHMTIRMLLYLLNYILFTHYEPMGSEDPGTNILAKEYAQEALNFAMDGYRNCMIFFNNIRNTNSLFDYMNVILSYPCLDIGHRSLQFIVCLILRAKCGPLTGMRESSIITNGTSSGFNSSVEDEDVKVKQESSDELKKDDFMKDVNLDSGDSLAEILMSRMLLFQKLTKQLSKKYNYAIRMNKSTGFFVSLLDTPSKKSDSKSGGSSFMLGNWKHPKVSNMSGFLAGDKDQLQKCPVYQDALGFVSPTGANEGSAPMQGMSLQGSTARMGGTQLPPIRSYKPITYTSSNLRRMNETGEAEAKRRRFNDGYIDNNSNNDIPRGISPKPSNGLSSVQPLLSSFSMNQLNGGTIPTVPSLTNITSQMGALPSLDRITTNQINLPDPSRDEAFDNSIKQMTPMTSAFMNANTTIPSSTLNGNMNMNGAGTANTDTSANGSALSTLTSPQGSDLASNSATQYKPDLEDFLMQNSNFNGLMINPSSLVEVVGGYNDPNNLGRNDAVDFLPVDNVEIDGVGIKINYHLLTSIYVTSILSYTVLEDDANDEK
Outline: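 E-scores (a modified Wilcoxon-Mann-Whitney statistic) were assigned by the Universal PBM Analysis Suite to every ungapped eight-base word pooled with its reverse complement. The input came from universal all-10-mer Agilent arrays made double-stranded by primer extension and probed with GST-tagged yeast transcription factors at about 100-200 nM. Fluorescent anti-GST detected bound protein, and masliner normalised the scans.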
For CCATGTCG, the “PBM E-score” value was -0.0421.
With CGAATTAA the “PBM E-score” value was 0.0158.
In the case of AAACGTGC, the “PBM E-score” value is reported as -0.217.
ACAAGCCC was tested, and the “PBM E-score” value was -0.0592.
CCGGACCA was tested, and the “PBM E-score” value was 0.372.
ACTTGCGA was tested, and the “PBM E-score” value was -0.0228.
For AAGTATAT, the “PBM E-score” value was 0.0963.
ATCCGACC was tested, and the “PBM E-score” value was 0.307.
In the case of ATCAGTAG, the “PBM E-score” value is reported as -0.276.
For ACTGCGCA, the “PBM E-score” value was 0.00346.
With AATTACTG the “PBM E-score” value was -0.12.
ACCCCATC was tested, and the “PBM E-score” value was 0.0549.
For CATGGACC, the “PBM E-score” value was -0.0726.
In the case of ACAGTTGA, the “PBM E-score” value is reported as -0.16.
With AGGTAAAG the “PBM E-score” value was -0.0257.
For CCCATAAC, the “PBM E-score” value was 0.0228.
For AGTTTATA, the “PBM E-score” value was 0.128.
For CCCAGGGA, the “PBM E-score” value was -0.304.
For CGAAATCC, the “PBM E-score” value was 0.284.
For TGGAGTAA, the “PBM E-score” value was -0.148.
With CGCTAACA the “PBM E-score” value was -0.00407.
For TCTTGCAA, the “PBM E-score” value was 0.127.
With ATATTTTA the “PBM E-score” value was -0.0539.
For CGAGTATA, the “PBM E-score” value was 0.00078.
ACATATGC was tested, and the “PBM E-score” value was -0.301.
GCCACCGA was tested, and the “PBM E-score” value was 0.0551.
AGACCGAC was tested, and the “PBM E-score” value was 0.346.
In the case of AGCACTGA, the “PBM E-score” value is reported as -0.102.
With ACGTTATC the “PBM E-score” value was 0.17.
For AACAGCCT, the “PBM E-score” value was -0.24.
For ATCCTGAC, the “PBM E-score” value was -0.135.
With ATGGGTTA the “PBM E-score” value was -0.0828.
In the case of GGCCCGAA, the “PBM E-score” value is reported as 0.384.
With AGAGAGAT the “PBM E-score” value was -0.285.
With CCGCTTCA the “PBM E-score” value was 0.0542.
CAGACTTC was tested, and the “PBM E-score” value was -0.289.
In the case of GCAGACAA, the “PBM E-score” value is reported as -0.0966.
AGCACGCC was tested, and the “PBM E-score” value was 0.0637.
For AGGAGGTA, the “PBM E-score” value was -0.044.
For AGACCCAC, the “PBM E-score” value was -0.094.
For ATTTTAGA, the “PBM E-score” value was -0.109.
With GGTCCAAA the “PBM E-score” value was 0.0135.
With ACTGCGGA the “PBM E-score” value was 0.199.
With ACCGCGCT the “PBM E-score” value was 0.15.
AGGAACGA was tested, and the “PBM E-score” value was -0.0316.
With CCGACTGC the “PBM E-score” value was 0.274.
With ACTCAGCT the “PBM E-score” value was -0.171.
For ATCTGCAA, the “PBM E-score” value was -0.287.
In the case of ACTCTCGC, the “PBM E-score” value is reported as -0.0418.
AGATATGG was tested, and the “PBM E-score” value was -0.0259.
With AAAGCCAA the “PBM E-score” value was 0.00136.
For CCTGTAAA, the “PBM E-score” value was -0.273.
In the case of CCCTGAAA, the “PBM E-score” value is reported as -0.24.
With GATCGGGC the “PBM E-score” value was 0.28.
AGTTTCCC was tested, and the “PBM E-score” value was -0.0919.
With ACTTTTAA the “PBM E-score” value was -0.177.
In the case of CCACGAGC, the “PBM E-score” value is reported as 0.0826.
For CGCGAAGA, the “PBM E-score” value was 0.119.
For CTCAACAA, the “PBM E-score” value was -0.196.
In the case of ATTCGAGG, the “PBM E-score” value is reported as -0.221.
ATCTTTGG was tested, and the “PBM E-score” value was -0.0801.
With GATCCTAA the “PBM E-score” value was -0.233.
In the case of CCAGAGGG, the “PBM E-score” value is reported as 0.0653.
In the case of ATATTACA, the “PBM E-score” value is reported as 0.0647.
For AATATAAA, the “PBM E-score” value was 0.137.
In the case of AGTCTAGC, the “PBM E-score” value is reported as -0.126.
In the case of GACATCCC, the “PBM E-score” value is reported as 0.203.
In the case of CTTGGTAA, the “PBM E-score” value is reported as -0.161.
CGGTTGGC was tested, and the “PBM E-score” value was 0.171.
In the case of GGCAGAAC, the “PBM E-score” value is reported as 0.103.
With GAATCGTC the “PBM E-score” value was 0.117.
With ACGCACGC the “PBM E-score” value was 0.197.
In the case of CGTAGCCA, the “PBM E-score” value is reported as 0.00448.
With CAGTGCAG the “PBM E-score” value was -0.114.
In the case of CTAGGTGA, the “PBM E-score” value is reported as -0.335.
GCGCTTGA was tested, and the “PBM E-score” value was 0.0689.
ACTGAAGG was tested, and the “PBM E-score” value was -0.129.
AAACCTGA was tested, and the “PBM E-score” value was -0.224.
AGCCGTCA was tested, and the “PBM E-score” value was 0.118.
In the case of CGTACCAG, the “PBM E-score” value is reported as -0.0509.
With TTGGACAA the “PBM E-score” value was -0.155.
In the case of ATGTACAT, the “PBM E-score” value is reported as -0.0187.
In the case of AACCATGG, the “PBM E-score” value is reported as -0.0645.
AGCCACGG was tested, and the “PBM E-score” value was 0.129.
AGATCGTA was tested, and the “PBM E-score” value was -0.0963.
In the case of ATGGTAAT, the “PBM E-score” value is reported as 0.0498.
For CGAGGGCC, the “PBM E-score” value was 0.133.
With AAAGGAGG the “PBM E-score” value was -0.217.
CAATAATC was tested, and the “PBM E-score” value was 0.0332.
With ATGATCAT the “PBM E-score” value was -0.237.
For GATACACC, the “PBM E-score” value was 0.147.
For AGGCCGGA, the “PBM E-score” value was 0.336.
For CATAGACG, the “PBM E-score” value was -0.0605.
ACGAACGT was tested, and the “PBM E-score” value was -0.108.
GAAGTCTC was tested, and the “PBM E-score” value was 0.0327.
With CGGAAACA the “PBM E-score” value was 0.384.
In the case of CGTCAAGA, the “PBM E-score” value is reported as -0.118.
For TAGACCTA, the “PBM E-score” value was -0.239.
For CTTCTTTC, the “PBM E-score” value was -0.159.
For GCGCGAGA, the “PBM E-score” value was 0.17.
With GCTTAAGC the “PBM E-score” value was -0.0667.
For CTCGGATA, the “PBM E-score” value was 0.371.
ATGGGGTC was tested, and the “PBM E-score” value was 0.142.
For TGAGGTAA, the “PBM E-score” value was -0.0381.
CGTAAACC was tested, and the “PBM E-score” value was 0.0738.
In the case of ACGTCACT, the “PBM E-score” value is reported as 0.0437.
CTCACTTC was tested, and the “PBM E-score” value was -0.188.
With GATTTGGC the “PBM E-score” value was -0.0228.
In the case of ATGCCCGA, the “PBM E-score” value is reported as 0.24.
In the case of AGCATAGA, the “PBM E-score” value is reported as -0.192.
In the case of TAATATTA, the “PBM E-score” value is reported as 0.151.
CCTCTCGC was tested, and the “PBM E-score” value was -0.0347.
For ATCGCAAT, the “PBM E-score” value was 0.0688.
CCACATAA was tested, and the “PBM E-score” value was -0.099.
For CGGCGCAA, the “PBM E-score” value was 0.258.
For AACAGTGT, the “PBM E-score” value was -0.295.
CGCGACAA was tested, and the “PBM E-score” value was 0.116.
For AGCCACAT, the “PBM E-score” value was -0.237.
In the case of CCCATTTA, the “PBM E-score” value is reported as -0.104.
CACAAGCC was tested, and the “PBM E-score” value was -0.0712.
CGACGATC was tested, and the “PBM E-score” value was 0.0288.
For GCTATGCA, the “PBM E-score” value was -0.261.
ATCGGAGG was tested, and the “PBM E-score” value was 0.227.
ACATGCGG was tested, and the “PBM E-score” value was 0.162.
For AGTGGAGG, the “PBM E-score” value was -0.129.
In the case of GTACAGGA, the “PBM E-score” value is reported as 0.0445.
With ACTGTAAT the “PBM E-score” value was -0.073.
For ACGCCGTG, the “PBM E-score” value was 0.113.
For ATTCTCAC, the “PBM E-score” value was -0.0744.
For CTAGAGCA, the “PBM E-score” value was -0.213.
For ATCTACTC, the “PBM E-score” value was 0.127.
In the case of AGAGACGC, the “PBM E-score” value is reported as 0.12.
CGGTTGAA was tested, and the “PBM E-score” value was 0.192.
With AGCTACTA the “PBM E-score” value was -0.104.
For GACTTATC, the “PBM E-score” value was 0.247.
CACTTGAC was tested, and the “PBM E-score” value was -0.16.
CGGTCCAC was tested, and the “PBM E-score” value was 0.136.
For GGGCACGA, the “PBM E-score” value was -0.0376.
In the case of AAGAGCCG, the “PBM E-score” value is reported as 0.31.
In the case of GCCCCGGC, the “PBM E-score” value is reported as 0.25.
For ATCCCGAG, the “PBM E-score” value was 0.284.
ATTAGGCC was tested, and the “PBM E-score” value was -0.0704.
With GAGGAATA the “PBM E-score” value was 0.0428.
For CATGTTAA, the “PBM E-score” value was 0.0683.
GCCGCGAC was tested, and the “PBM E-score” value was 0.109.
With AATCATCG the “PBM E-score” value was 0.156.
For GGGCGACA, the “PBM E-score” value was 0.197.
With TAGAATGA the “PBM E-score” value was -0.239.
In the case of ACCAGTCC, the “PBM E-score” value is reported as 0.0184.
For ACTTTTTG, the “PBM E-score” value was -0.164.
GTACTACA was tested, and the “PBM E-score” value was -0.185.
For GGTGACGA, the “PBM E-score” value was -0.257.
CAGCTCCC was tested, and the “PBM E-score” value was -0.147.
With GAACCTCC the “PBM E-score” value was -0.0608.
For ATTAAACA, the “PBM E-score” value was -0.127.
AATATCTA was tested, and the “PBM E-score” value was -0.199.
In the case of GGAACCTA, the “PBM E-score” value is reported as 0.158.
With CGCCTACG the “PBM E-score” value was 0.118.
In the case of ACTGAATG, the “PBM E-score” value is reported as 0.0606.
For TGACCAAA, the “PBM E-score” value was -0.181.
ATTAGGCG was tested, and the “PBM E-score” value was 0.166.
With AATAATCT the “PBM E-score” value was 0.0101.
For ATGAACGA, the “PBM E-score” value was -0.167.
For CACCTCAA, the “PBM E-score” value was -0.134.
With ATGACATC the “PBM E-score” value was -0.0132.
CCCTAGGG was tested, and the “PBM E-score” value was -0.324.
TTCAGGAA was tested, and the “PBM E-score” value was -0.219.
In the case of CTTGCCAA, the “PBM E-score” value is reported as -0.194.
In the case of AAAGACCA, the “PBM E-score” value is reported as -0.182.
In the case of CACATGCC, the “PBM E-score” value is reported as -0.0842.
With ACTCGCAT the “PBM E-score” value was -0.0225.
With CTTGGGGA the “PBM E-score” value was -0.107.
